Among all 310,000 compounds or so, about 2,200 (0.71%) showed an effect of 50% or more. The effect is printed as a negative number. This is one part of the list.
What follows are compounds tested against human ether-à-go-go-related gene (hERG) potassium channel (human, UniProt Q12809) (assay: primary screen, population patch clamp on CHO cells stably expressing hERG).
Chain of human ether-à-go-go-related gene (hERG) potassium channel (Q12809 whole entry, looked up): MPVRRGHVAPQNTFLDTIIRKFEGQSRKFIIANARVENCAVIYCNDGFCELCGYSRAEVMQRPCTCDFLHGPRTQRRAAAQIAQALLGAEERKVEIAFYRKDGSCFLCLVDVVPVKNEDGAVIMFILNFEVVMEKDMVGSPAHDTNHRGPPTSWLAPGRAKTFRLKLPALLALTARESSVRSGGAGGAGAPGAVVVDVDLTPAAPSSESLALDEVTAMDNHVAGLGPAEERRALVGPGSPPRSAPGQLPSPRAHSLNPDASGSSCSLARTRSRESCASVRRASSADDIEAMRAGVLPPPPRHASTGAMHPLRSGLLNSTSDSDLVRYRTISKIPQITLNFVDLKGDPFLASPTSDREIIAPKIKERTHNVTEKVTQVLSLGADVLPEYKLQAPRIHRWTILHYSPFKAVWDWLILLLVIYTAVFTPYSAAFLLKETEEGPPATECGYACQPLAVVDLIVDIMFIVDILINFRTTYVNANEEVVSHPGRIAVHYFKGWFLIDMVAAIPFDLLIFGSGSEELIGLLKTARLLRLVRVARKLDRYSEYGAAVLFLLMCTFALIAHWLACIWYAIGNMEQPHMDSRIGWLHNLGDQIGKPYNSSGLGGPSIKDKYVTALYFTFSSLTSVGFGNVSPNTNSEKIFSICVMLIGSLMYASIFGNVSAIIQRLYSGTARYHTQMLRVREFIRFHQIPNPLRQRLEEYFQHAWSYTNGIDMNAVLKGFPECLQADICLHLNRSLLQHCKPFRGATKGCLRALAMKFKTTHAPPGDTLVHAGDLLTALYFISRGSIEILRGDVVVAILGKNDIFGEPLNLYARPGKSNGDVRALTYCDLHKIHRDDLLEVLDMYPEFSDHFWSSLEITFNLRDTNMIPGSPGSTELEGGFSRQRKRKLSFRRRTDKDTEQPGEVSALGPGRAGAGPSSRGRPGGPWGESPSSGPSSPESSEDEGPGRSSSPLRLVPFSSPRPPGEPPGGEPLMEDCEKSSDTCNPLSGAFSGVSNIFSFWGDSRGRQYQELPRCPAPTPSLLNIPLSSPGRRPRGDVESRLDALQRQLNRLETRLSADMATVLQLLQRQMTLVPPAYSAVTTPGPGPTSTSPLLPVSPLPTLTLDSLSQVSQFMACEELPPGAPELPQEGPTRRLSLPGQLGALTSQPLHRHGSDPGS

| Structure (SMILES) | hERG current change (%, negative = inhibition) at 1uM [%] |
| --- | --- |
| O=C1[C@@H]2[C@H](Cc3ccc(O)cc3)N[C@]3(C(=O)Nc4ccccc43)[C@@H]2C(=O)N1c1ccc(F)cc1 | 4.46 |
| Cc1ccnc(NC(=O)COc2ccc(Cl)cc2)n1 | 1.73 |
| O=C(c1ccc(N2CCC3(CC2)OCCO3)c([N+](=O)[O-])c1)N1CCOCC1 | 1.27 |
| COc1nc(OCCNC(C)=O)nc(N(C)C)n1 | -7.2 |
| COc1ccc(Cc2nnc(SCc3c(C)noc3C)n2C2CCCCC2)cc1OC | 6.99 |
| O=C(Nc1ccccc1C(=O)N1CCOCC1)c1ccc(F)cc1 | 17.5 |
| O=C(N/N=C/C(Br)=C\c1ccccc1)c1n[nH]c2c1CCC2 | 9.36 |
| Cc1ccc(S(=O)(=O)C2(C(=O)Nc3cccc(F)c3)CC2)cc1 | 9.39 |
| CC1(C)Cc2cccc(OCC(=O)N3CCN(c4ccccc4F)CC3)c2O1 | 0.623 |
| COc1ccc(C(=O)OC(C)CN2CCN(C)CC2)cc1OC.Cl (centres unmarked) | 13.3 |
| O=C1CCCc2ccccc2N1Cc1ccc(Cl)cc1 | -2.3 |
| Cc1cc(C(F)(F)F)nn1CC(=O)N1CCCC1 | 0.46 |
| CC1Cc2cc(S(=O)(=O)N3CCC(C(=O)N(C)Cc4ccccc4)CC3)ccc2N1C(=O)C1CC1 (centres unmarked) | 12.4 |
| COc1cc(NC(=O)c2cccs2)ccc1NC(=O)c1cc2ccccc2o1 | 8.63 |
| Cn1c(O)c(C=NC2CCCCCC2)c(=O)[nH]c1=S | 9.9 |
| O=C(c1cn(-c2ccccc2)nc1-c1cccnc1)N1CCCCC1 | 2.79 |
| O=C(NC(=O)c1ccccc1N1CCCCC1)Nc1ccc(Br)cc1 | 15.9 |
| COc1cccc2sc3ccc(C#Cc4ccc(N)cc4)cc3c(=O)c12 | 12.9 |
| O=S(=O)(Nc1cccnc1)c1cccc(C(F)(F)F)c1 | -3.93 |
| Cc1sc2nc(C)n(/N=C/c3ccccc3)c(=O)c2c1C | -15 |
| CC1Sc2n(c3ccccc3[n+]2C)N=C1c1ccccc1.[Br-] (centres unmarked) | -16.8 |
| Cc1ccc(C)c(S(=O)(=O)N2CCN(C(=O)c3ccc4ccccc4n3)CC2)c1 | 8.87 |
| Cn1c(=O)[nH]c(=O)c2c1nc1n2CCCN1Cc1ccccc1 | 13.9 |

| Structure (SMILES) | hERG current change (%, negative = inhibition) at 1uM [%] |
| --- | --- |
| COc1cc2c(cc1NC(=O)C(C)Sc1cccc[n+]1[O-])oc1ccccc12 (centres unmarked) | -5.56 |
| Cc1nccn1CC(=O)c1ccc(O)c(O)c1.Cl | 13.8 |
| COc1cc(/C=N/NC(=S)NCCN2CCOCC2)cc(OC)c1O | 8.48 |
| CCN(CC)S(=O)(=O)c1cccc(C(=O)N/N=C/c2ccccn2)c1 | -3.66 |
| CCC(CO)NC(=O)c1cccc(S(=O)(=O)N2c3ccccc3CC2C)c1 (centres unmarked) | 5.9 |
| CCOc1ccc(C(=O)C[n+]2ccc(C(=O)NCc3ccccc3)cc2)cc1.[Br-] | 4.11 |
| COc1cc(NC(=O)C2CCCN(c3ncnc4c3nc3n4CCCCC3)C2)cc(OC)c1OC (centres unmarked) | 8.85 |
| CC(SC1=NCCS1)C(=O)Nc1nnc(-c2ccc(F)cc2)s1 (centres unmarked) | 9.18 |
| N#C/C(=C/c1ccc(Br)o1)C(N)=S | 15.8 |
| CCC(C)n1c(=O)c2sccc2n2c(CCCC(=O)N3CCC(C(N)=O)CC3)nnc12 (centres unmarked) | 1.31 |
| O=C(CCCCCNc1nc(=S)[nH]c2ccccc12)N1CCN(c2ccccn2)CC1 | -12 |
| O=C(c1ccc(Br)o1)N1CCN(CCOc2ccccc2)CC1 | -24.1 |
| C=CCNC(=O)NC(=O)COC(=O)C(C)Oc1ccc(Cl)cc1Cl (centres unmarked) | 16.3 |
| Cc1ccc(C(=O)N/C(=C/c2ccc(Cl)cc2)C(=O)Nc2cccc(C(=O)O)c2)cc1 | 7.54 |
| OCCC1CN(Cc2cccn2-c2nccs2)CCN1Cc1ccccc1 (centres unmarked) | -21.7 |
| COc1ccc(F)c(CN(C)CC2CCCN(CCc3ccc(F)cc3)C2)c1 (centres unmarked) | -42.1 |
| COc1ccc(N2C(=S)NC(C)(C)CC2(C)c2ccc(OC(C)=O)cc2OC(C)=O)cc1 (centres unmarked) | -2.64 |
| CN1c2cccc3cccc(c23)N(C)C1(C)C | 2.36 |
| CCOC(=O)C1CCN(C(=O)CCS(=O)(=O)c2ccc3c(c2)n(C)c(=O)c(=O)n3C)CC1 | 10.2 |
| O=C(Nc1ccc2[nH]ncc2c1)c1ccccc1 | 17.6 |
| Cc1cc(NC(=O)c2cc(F)c(F)cc2Cl)no1 | 9.29 |
| Cc1cc2cc(CN(Cc3ccc4c(c3)OCO4)Cc3nnnn3C3CCCC3)c(=O)[nH]c2cc1C | 9.37 |
| CC1CCCC(NC(=O)c2ccc3c(=O)n(CC4CCCO4)c(=O)[nH]c3c2)C1C (centres unmarked) | -4.67 |

| Structure (SMILES) | hERG current change (%, negative = inhibition) at 1uM [%] |
| --- | --- |
| COc1ccc(OCCCC(=O)OCC(=O)Nc2sccc2C(N)=O)cc1 | -6.77 |
| CCOC(=O)C1(Cc2cccc(Cl)c2)CCCN(C(=O)c2cc(C)n(C)n2)C1 (centres unmarked) | 3.36 |
| CCOC(=O)c1[nH]c(C)c(C(=O)OCC(=O)N(CC)C2CCS(=O)(=O)C2)c1C (centres unmarked) | -8.94 |
| O=c1c(=Nc2ccccc2O)c(=O)c2ccccc12 | 17.3 |
| CCOC(=O)CCCC(=O)N1CCOCCOCCOCC1 | -4.98 |
| CCc1ccc(CCC(=O)Nc2nccs2)o1 | -2.36 |
| COc1cc(N2CCOCC2)ccc1/C=C1\C(=O)NC(=O)N(Cc2ccc3c(c2)OCO3)C1=O | 9.59 |
| COCCNC(=O)Cn1nc(-c2ccc(Cl)cc2)c2ccccc2c1=O | 10.4 |
| O=C1CCN(Cc2cccnc2)CCN1[C@H](CO)Cc1ccccc1 | 1.02 |
| CN1C(=O)/C(=C/c2ccc(C(=O)Nc3ccc(O)cc3C(=O)O)cc2)SC1=S | 12.1 |
| COc1ccc(-c2ccc(CCC(=O)O)n2C(C)C)cc1 | -0.0723 |
| COc1ccc(-c2nnc3sc(COc4ccccc4)nn23)cc1 | 4.67 |
| C#CC1(NC(=O)NCCCC)CCCCC1 | 14.1 |
| NS(=O)(=O)c1cccc(NC(=O)c2cc3ccccc3o2)c1 | 15.5 |
| CC(CN1CCCCC1)OC(=O)c1ccco1.Cl (centres unmarked) | 19.7 |
| Oc1ccc(/C=N/Nc2ccc(Cl)nn2)c(O)c1O | 16.5 |
| CCCCn1c(N)c(N(C)C(=O)c2cn(-c3ccccc3)nc2-c2ccccc2)c(=O)[nH]c1=O | 5.48 |
| CCN(CC)CCCNC(=O)c1csc(Nc2cccc3ccccc23)n1 | -45.6 |
| CC(C)c1nc2cc(C(=O)NC(c3cccnc3)C(F)(F)F)ccc2o1 (centres unmarked) | 1.73 |
| C=C1C(=O)[C@@]23[C@H](O)C[C@@H]4C(C)(C)CC[C@H](O)[C@]4(C)[C@@H]2C[C@H](O)[C@@H]1[C@H]3O | 7.83 |
| Cc1cc(C(=O)N=Nc2c(O)n(C)c3ccccc23)c(C)o1 | 13.8 |
| Cc1cc(-c2nnc(SCC(=O)Nc3ccccc3C(F)(F)F)o2)c(C)n1-c1ccccc1 | 9.78 |
| Cc1ccc(S(=O)OCC(=O)Nc2cc(Cl)ccc2N2CCOCC2)cc1 (centres unmarked) | 6.44 |

| Structure (SMILES) | hERG current change (%, negative = inhibition) at 1uM [%] |
| --- | --- |
| CCOC(=O)COc1cc2c(C(=O)OCC)c(C)oc2cc1Br | 17.2 |
| COc1cc([N+](=O)[O-])ccc1NC(=O)C[n+]1cccc(C)c1.[Cl-] | 10.6 |
| COc1ccc(-n2ncc(C(=O)N3CCN(c4ccc(F)cc4)CC3)c2C)cc1 | 0.0985 |
| Nc1cc(-c2nn[nH]n2)ccc1F | 11.9 |
| COCCCNc1nc2nonc2nc1N1CCC(C(C)N2CCOCC2)CC1 (centres unmarked) | 13.4 |
| CCc1ccccc1NC1=NCC(=O)N1Cc1ccccc1 | 10.6 |
| CC1CCc2c(C(=O)Nc3nccs3)csc2C1 (centres unmarked) | 12.8 |
| CC(=O)C1=C(O)C(=O)N(c2nnn(C)n2)C1c1cccs1 (centres unmarked) | 9.19 |
| Cc1ccc(-c2n[nH]c(=O)c3ccccc23)cc1S(=O)(=O)NC(C)(C)C | 12.7 |
| CC(C)=C1SC(N2CCN(c3ccc(C)c(Cl)c3)CC2)=NC1=O | 4.74 |
| CS(=O)(=O)NCc1nnc(SCc2ccc(C(F)(F)F)cc2)o1 | 6.78 |
| COc1cccc(C(=O)OC2CCN(C)CC2)c1.Cl | 10.3 |
| Cc1ccc(NC(=O)C(C)N2CCCC2)cc1Cl.Cl (centres unmarked) | -5.23 |
| O=C(NNC(=O)c1ccccc1C(F)(F)F)c1csc(N2CCOCC2)n1 | 16.1 |
| CCOC(=O)N1CCN(C(=O)c2ccc3nc(N4CCC(C)CC4)sc3c2)CC1 | 2.41 |
| COc1ccc(/C=C(/C#N)C(=O)Nc2cccc([N+](=O)[O-])c2)cc1C(=O)O | 17.3 |
| COc1cc(CCC(O)CC(=O)CCc2ccccc2)ccc1O (centres unmarked) | -7.37 |
| CCOc1cc(C(=O)OCc2ccc(C(=O)OC)o2)cc(Br)c1OC | 12.8 |
| Cc1ccc(SCC(=O)NC(=O)NCCC(C)C)c(C)c1 | 4.05 |
| Cc1ccc(NC(=O)[C@@H]2CCC(=O)N2C2OC(=O)c3ccccc32)cc1Cl (some centres unmarked) | -6.31 |

From publication PMC4336329 (PLoS ONE, 2015)
